# Data reported in paper PMC4336329 (PLoS ONE, 2015).
# In all, about 310,000 compounds went through this assay and about 2,200 (0.71%) showed an effect of 50% or more. Effects have a minus sign here. This is one part of the list.
# Target: human ether-à-go-go-related gene (hERG) potassium channel (human, UniProt Q12809)
# Test: primary screen, population patch clamp on CHO cells stably expressing hERG
# human ether-à-go-go-related gene (hERG) potassium channel, sequence (Q12809 whole entry, looked up): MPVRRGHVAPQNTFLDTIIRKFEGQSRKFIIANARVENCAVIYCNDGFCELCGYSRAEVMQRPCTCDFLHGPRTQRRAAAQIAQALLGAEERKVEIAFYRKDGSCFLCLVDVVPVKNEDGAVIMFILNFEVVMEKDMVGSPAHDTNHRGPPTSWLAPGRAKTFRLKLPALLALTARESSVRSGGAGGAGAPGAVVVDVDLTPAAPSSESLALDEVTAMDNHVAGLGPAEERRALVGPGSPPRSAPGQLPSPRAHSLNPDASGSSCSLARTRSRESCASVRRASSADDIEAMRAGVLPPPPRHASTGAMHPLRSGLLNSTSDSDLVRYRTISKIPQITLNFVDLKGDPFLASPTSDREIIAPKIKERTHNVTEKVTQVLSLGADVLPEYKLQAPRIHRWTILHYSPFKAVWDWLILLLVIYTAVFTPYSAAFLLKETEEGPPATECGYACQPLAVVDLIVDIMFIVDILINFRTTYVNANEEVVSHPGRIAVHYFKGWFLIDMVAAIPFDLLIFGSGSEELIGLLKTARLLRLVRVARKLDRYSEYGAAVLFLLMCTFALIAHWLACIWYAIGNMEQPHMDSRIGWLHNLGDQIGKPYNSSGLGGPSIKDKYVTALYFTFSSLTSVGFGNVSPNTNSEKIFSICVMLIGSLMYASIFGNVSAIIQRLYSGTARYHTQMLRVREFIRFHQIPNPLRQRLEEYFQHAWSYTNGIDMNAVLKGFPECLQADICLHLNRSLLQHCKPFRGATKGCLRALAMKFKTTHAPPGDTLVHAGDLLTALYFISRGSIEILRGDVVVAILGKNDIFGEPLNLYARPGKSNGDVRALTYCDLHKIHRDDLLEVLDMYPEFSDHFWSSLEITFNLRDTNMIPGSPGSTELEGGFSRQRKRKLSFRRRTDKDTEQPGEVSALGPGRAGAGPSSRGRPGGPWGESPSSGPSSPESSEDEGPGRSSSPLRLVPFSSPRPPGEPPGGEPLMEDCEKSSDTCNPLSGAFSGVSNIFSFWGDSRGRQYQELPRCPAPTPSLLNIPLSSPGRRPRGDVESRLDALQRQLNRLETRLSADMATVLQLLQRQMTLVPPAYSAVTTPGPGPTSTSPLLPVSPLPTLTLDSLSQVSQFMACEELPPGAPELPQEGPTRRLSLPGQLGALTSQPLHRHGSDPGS
row,SMILES,"hERG current change (%, negative = inhibition) at 1uM"
1,CCCOc1cccc(C(=O)Nc2ccccc2C(=O)N2CCN(C)CC2)c1,-21.3%
2,CCn1cc(C(=O)NCCCN2CC(C)CC(C)C2)c2cc(OC)c(OC)cc2c1=O (stereo not drawn),5.77%
3,CC(C(=O)Nc1ccncc1)(c1ccccc1)c1ccccc1,-8.74%
4,CCc1nc(Nc2cccc(O)c2)c2oc3ccccc3c2n1.Cl,4.28%
5,Cc1ccccc1CC1CCN(CCCNC(=O)Nc2ccccc2)CC1,-34.1%
6,Brc1ccccc1C1=Nn2c(nnc2-c2ccccc2)SC1,15.1%
7,COCOc1ccc(C=O)c(O)c1,13.9%
8,Nc1c(Cl)cc(C2=NCCn3c2c2ccc([N+](=O)[O-])cc2[n+]3[O-])cc1Cl,-5.67%
9,CCCC[C@@H]1C[C@H]1[C@@H](NC(=O)c1cccs1)c1ccc(Cl)cc1,11.8%
10,Cc1ccc(NC(=O)c2c([N+](=O)[O-])c(C(C)(C)C)nn2C)cc1,8.08%
11,CCCN(C(=O)c1cc(Cl)nc2ccccc12)C1CCS(=O)(=O)C1 (stereo not drawn),11%
12,COC(=O)C1=C(c2ccccc2)C[C@@H]2CC[C@H]1N2C(=O)NCCS(C)=O (stereo partly drawn),19.1%
13,Cc1c([N+](=O)[O-])cnc(Sc2ccccc2)c1[N+](=O)[O-],8.28%
14,Cc1[nH]n(-c2ccccc2)c(=O)c1/C=N/NC(=O)C(C)C,5.77%
15,CCN(CC)CCn1c2ccc(Cl)cc2c2nc(C)sc21.Cl,-49.7%
16,Br.Cc1nc2ccc(NC3=NCCCCC3)cc2s1,11.5%
17,COc1ccccc1CNC(=O)CCn1c(=O)sc2ccccc21,1.53%
18,COc1ccc(C2/C(=C(/O)c3ccc4c(c3)CC(C)O4)C(=O)C(=O)N2CCCN2CCOCC2)cc1 (stereo not drawn),11.8%
19,CC1(C)NC(=O)N(CCOc2cccc(Oc3ccccc3)c2)C1=O,-1.05%

row,SMILES,"hERG current change (%, negative = inhibition) at 1uM"
1,O=c1c2c(nc3nc(NCc4ccc(Cl)cc4)[nH]n13)CCC2,9.51%
2,CN(CCOc1ccccc1)C(=O)c1cc(S(=O)(=O)N2CCCCC2)ccc1Cl,-7.59%
3,Cc1occc1C(=O)Nc1cc(C(F)(F)F)ccc1Cl,8.09%
4,C=CCn1cc(C(=O)OCC)c(=O)c2ccc(F)cc21,10.8%
5,CCn1cc(C(=O)NC2CCCCCC2)c(=O)c2cc(S(=O)(=O)N3CCCCC3)ccc21,12.5%
6,CC(C)CC(NS(=O)(=O)c1cc(C(=O)O)ccc1Cl)C(=O)O (stereo not drawn),9.73%
7,COc1ccccc1C(=O)NC(=O)COC(=O)c1ccc([N+](=O)[O-])cc1,8.68%
8,COc1cc(/C=C(\NC(C)=O)C(=O)Nc2cccc(O)c2)ccc1OC(C)=O,10.6%
9,CSc1ccc(/C=N/NC(=O)CNc2ccc3ccccc3c2)cc1,11.3%
10,O=C(NNC1=Nc2cc([N+](=O)[O-])ccc2OC1)c1ccccc1Cl,7.39%
11,Cc1cc(C)cc(C(=O)NCC(=O)OCC(=O)N(C)C2CCS(=O)(=O)C2)c1 (stereo not drawn),2.9%
12,O=C(N/N=C\C=C\c1ccc(Br)cc1)c1ccc2c(c1)OCO2,10.7%
13,Cc1ccc(S(=O)(=O)Oc2ccc3ccc(O)cc3c2)cc1,11.9%
14,CCCCN(C)CCCNC(=O)c1cc(-c2cccs2)nc2ccccc12,-80.8%
15,CCOC(=O)C1CCN(C(=O)Cc2c(C(=O)O)n(CC)c3ccccc23)CC1,12.2%
16,COc1ccc(C(=O)NC2CCSc3ccccc32)cc1F (stereo not drawn),15.1%
17,N#CC1(c2ccccc2)CCCN1C(=O)c1ccccc1Br (stereo not drawn),16%
18,COC(=O)[C@H](CCSC)NC(=O)Nc1cccc(Br)c1,12.4%
19,Cc1c(C(=O)OCc2nc3scc(-c4ccccc4)c3c(=O)[nH]2)cccc1[N+](=O)[O-],11.3%

row,SMILES,"hERG current change (%, negative = inhibition) at 1uM"
1,Cc1cccnc1NC1(C(F)(F)F)N=C2SCCN2C1=O (stereo not drawn),11.8%
2,COc1ccc(NC(=O)CSc2c(C)nn(-c3nnc(C)c(=O)[nH]3)c2C)cc1,11.2%
3,CC(C(=O)N1CCN(c2ccccc2)CC1)c1ccc([N+](=O)[O-])cc1 (stereo not drawn),-12.2%
4,COc1ccccc1C(=O)N/C(N)=N/c1nc2ccccc2o1,12.8%
5,CC(C)N(Cc1ccccc1)C(=O)CN1C(=O)NC(Cc2ccccc2)(c2ccccc2)C1=O (stereo not drawn),9.38%
6,CN(C)/C=C/c1onc(-c2c(F)cccc2Cl)c1C#N,-5.02%
7,CCOC(=O)C1(Cc2ccccc2)CCN(CC2CC=CCC2)CC1 (stereo not drawn),-5.83%
8,CNC(=S)NN(C)c1nc(C)cc(C)n1,8.4%
9,C#C[C@]1(O)CCC2C3CCC4=Cc5oncc5CC4(C)C3CCC21C (stereo partly drawn),-1.18%
10,C=CCN1C(=O)C(=O)N(Cc2nc3ccccc3s2)C1=O,8.47%
11,O=C(Nc1ccc(F)c(Cl)c1)C1CCCCC1,-13%
12,O=C(Cc1ccc(-n2c(=O)c3ccccc3n(Cc3cccc([N+](=O)[O-])c3)c2=O)cc1)NCC1CCCO1 (stereo not drawn),14%
13,CN(Cc1ccccc1)C(=O)c1cccc(N2C(=O)C3CC=CCC3C2=O)c1 (stereo not drawn),21.4%
14,O=S(=O)(Nc1cccc(-c2cn3c(n2)SCC3)c1)c1ccccc1,19.9%
15,CN(Cc1nc(-c2cccc(Cl)c2)no1)C1CCOCC1,-7.93%
16,C[C@H](NC(N)=O)C(=O)Nc1ccc(N2CCOCC2)c(S(=O)(=O)Nc2ccc(Cl)cc2)c1,9.81%
17,COC(=O)c1c[nH]n2c(=O)cc(CCl)nc12,6.15%
18,O=C(CSc1nnnn1-c1ccccc1)NC(=O)NCc1ccco1,9.57%
19,COc1ccc(C/C(C)=N/NC(=S)Nc2ccc(C(C)C)cc2)cc1,17.4%
